Test results: publication PMC4336329 (PLoS ONE, 2015)
The campaign covered roughly 310,000 compounds. About 14,000 (4.5%) showed an effect of 50% or more. The effect is printed as a negative number. The list shows a part of the results.

target: human ether-à-go-go-related gene (hERG) potassium channel (human, UniProt Q12809); assay: primary screen, population patch clamp on CHO cells stably expressing hERG
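Also: peak tail current of the secondary pulse compared with the same well before compound.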

Sequence of human ether-à-go-go-related gene (hERG) potassium channel (Q12809 whole entry, looked up): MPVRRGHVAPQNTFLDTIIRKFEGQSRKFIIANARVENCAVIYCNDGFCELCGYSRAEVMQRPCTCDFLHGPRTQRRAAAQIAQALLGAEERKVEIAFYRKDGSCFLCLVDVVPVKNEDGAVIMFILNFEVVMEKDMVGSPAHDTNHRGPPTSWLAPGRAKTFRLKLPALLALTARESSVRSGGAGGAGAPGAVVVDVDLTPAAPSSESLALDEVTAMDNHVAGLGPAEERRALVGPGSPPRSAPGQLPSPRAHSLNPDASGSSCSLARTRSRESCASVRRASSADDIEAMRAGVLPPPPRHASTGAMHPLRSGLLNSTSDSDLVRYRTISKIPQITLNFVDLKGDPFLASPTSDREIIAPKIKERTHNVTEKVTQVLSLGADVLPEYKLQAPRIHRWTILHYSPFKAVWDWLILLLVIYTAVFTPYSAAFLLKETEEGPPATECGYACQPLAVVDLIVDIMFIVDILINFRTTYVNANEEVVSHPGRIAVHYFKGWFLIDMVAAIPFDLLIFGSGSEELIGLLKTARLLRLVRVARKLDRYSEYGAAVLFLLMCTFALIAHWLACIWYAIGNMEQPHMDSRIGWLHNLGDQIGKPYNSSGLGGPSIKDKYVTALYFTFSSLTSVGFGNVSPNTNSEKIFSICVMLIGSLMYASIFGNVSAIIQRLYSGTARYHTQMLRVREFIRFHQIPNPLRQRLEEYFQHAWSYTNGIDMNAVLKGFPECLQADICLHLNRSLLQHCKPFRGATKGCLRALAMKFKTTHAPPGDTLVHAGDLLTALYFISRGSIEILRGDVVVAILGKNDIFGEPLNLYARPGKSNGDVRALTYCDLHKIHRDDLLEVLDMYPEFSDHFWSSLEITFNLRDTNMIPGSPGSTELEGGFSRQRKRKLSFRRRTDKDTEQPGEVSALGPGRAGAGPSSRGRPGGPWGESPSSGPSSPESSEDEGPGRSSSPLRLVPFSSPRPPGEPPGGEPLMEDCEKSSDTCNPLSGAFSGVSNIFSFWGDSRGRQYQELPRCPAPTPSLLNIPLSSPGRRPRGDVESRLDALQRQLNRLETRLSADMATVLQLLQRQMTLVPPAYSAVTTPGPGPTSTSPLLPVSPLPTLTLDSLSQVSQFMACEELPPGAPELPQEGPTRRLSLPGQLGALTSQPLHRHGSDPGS

First: Cn1c(=NC(=O)CS(=O)(=O)c2ccccc2)sc2ccccc21
Second: CCn1cc(CCC(=O)NC(C)c2ccccc2)c2ccccc21 (stereo not drawn)
The “hERG current change (%, negative = inhibition) at 10uM” value of the first is higher: 15.8% for the first, 4.59% for the second.

Compared with CCn1ncc(CN2CCC(Oc3cc(C(=O)NC4CC4)ccc3OC)CC2)c1C, CCOC(=O)Cn1c(=O)n(Cc2ccco2)c(=O)c2ccc(C(=O)NC3CCCC3)cc21 is higher in “hERG current change (%, negative = inhibition) at 10uM” value: -21.5% for the first, -18.9% for the second.

Going from COC1(OC)N=C(N)C2(C#N)C(c3cccc(Oc4ccccc4)c3)C12C#N (stereo not drawn) to COc1cccc(/C=C/C(=O)OCC(=O)c2c[nH]c3ccccc23)c1, the “hERG current change (%, negative = inhibition) at 10uM” value rises from -2.83% to 13%.

Going from O=C(Cn1cnc2cc([N+](=O)[O-])ccc2c1=O)NCc1ccc(Cl)cc1 to COC(=O)c1cn(NC(=O)c2cc([N+](=O)[O-])ccc2F)c(=O)c2ccccc12, the “hERG current change (%, negative = inhibition) at 10uM” value rises from -19.2% to -2.81%.

Compared with COc1ccc(-c2csc(NC(=O)CN3C(=O)C4CCCCC4C3=O)n2)cc1OC (stereo not drawn), COc1ccc(NC(=O)COC(=O)Cc2ccccc2[N+](=O)[O-])cc1OC is higher in “hERG current change (%, negative = inhibition) at 10uM” value: -26.8% for the first, 29.3% for the second.

First: O=S(=O)(Cc1ccccc1)NCCc1cccc(Cl)c1
Second: COc1ccccc1OCCNC(=O)c1cccc(S(=O)(=O)NCc2ccccc2)c1
The “hERG current change (%, negative = inhibition) at 10uM” value of the first is higher: -5.57% for the first, -35% for the second.

First: Cc1onc(-c2ccccc2)c1C(=O)N=C(N)c1ccc(C(F)(F)F)cc1
Second: O=c1[nH]c2cc3ccccc3cc2nc1C(F)(F)F
The “hERG current change (%, negative = inhibition) at 10uM” value of the first is lower: 9.84% for the first, 19.1% for the second.

Going from COc1cc(C(=O)NCc2cccc3ccccc23)cc(Cl)c1OC to COc1ccccc1/C=N/NC(=O)c1cc2c(ccc3ccccc32)o1, the “hERG current change (%, negative = inhibition) at 10uM” value rises from 12.6% to 19%.

Going from Nc1cc(C(Cl)=C(Cl)Cl)c(S(N)(=O)=O)cc1S(N)(=O)=O to O.O=C(O)c1cc(=O)c2c(Cl)cc(Cl)cc2[nH]1, the “hERG current change (%, negative = inhibition) at 10uM” value falls from 16.8% to -51.9%.

Compared with CC(=O)N1CCCN(C(=O)c2ccc3nc(Cc4ccccc4F)oc3c2)CC1, Cc1ccc(C(=O)N2CCN(c3ccccc3)CC2)cc1C is lower in “hERG current change (%, negative = inhibition) at 10uM” value: 7.19% for the first, 4.41% for the second.

Compared with CCOc1ccccc1NC(=O)C1CCN(S(=O)(=O)c2c(C)noc2C)CC1, COc1ccc(S(=O)(=O)N2CCC(C(=O)c3ccc4c(c3)OCCO4)CC2)cc1 is lower in “hERG current change (%, negative = inhibition) at 10uM” value: 20% for the first, -6.76% for the second.

First: COc1ccc(C(=O)N/C(=C\c2cn(C)c3ccccc23)C(=O)NCCCn2ccnc2)cc1
Second: COc1ccc(S(=O)(=O)n2nc(OC(=O)c3cccs3)cc2NC(=O)c2cccs2)cc1
The “hERG current change (%, negative = inhibition) at 10uM” value of the first is higher: 26.3% for the first, -7.03% for the second.

Going from O=Cc1c(Sc2ccccc2)nc2ccccn2c1=O to O=C(Nc1ccc2ccccc2c1)c1ccccc1F, the “hERG current change (%, negative = inhibition) at 10uM” value rises from -0.892% to 21.7%.

Compared with CC1CCCC(C)N1CCCNC(=O)c1cc2c(=O)n(C)c3ccccc3c2n1C (stereo not drawn), Cc1cc(C(=O)CN2C(=O)NC(Cc3c[nH]c4ccccc34)C2=O)c(C)n1C (stereo not drawn) is lower in “hERG current change (%, negative = inhibition) at 10uM” value: 5.79% for the first, 2.89% for the second.

Compared with Cc1cc(C)c(OCC(=O)N/N=C/c2ccc3c(c2)OCO3)c(C)c1, Cc1ccc(NC(=O)CSc2ccc3c(c2)OCCO3)c(O)c1 is lower in “hERG current change (%, negative = inhibition) at 10uM” value: 2.47% for the first, -1.56% for the second.

Going from COC(=O)c1ccc(OS(=O)(=O)N(C)C)cc1 to CCC1SC2=NC(C)=C(C(=O)OCCOC)C(c3ccc(C(=O)OC)cc3)N2C1=O (stereo not drawn), the “hERG current change (%, negative = inhibition) at 10uM” value falls from 16.3% to -5.89%.

Compared with Cc1nn(CCCC(=O)NCc2ccc(F)cc2)c(=O)c2nccn12, CCc1cccc(NC(=O)CCCSc2nc3ccccc3[nH]2)c1 is lower in “hERG current change (%, negative = inhibition) at 10uM” value: 9.12% for the first, -16.7% for the second.

Compared with CC(C)Nc1nnc(Sc2ccc(Cl)cc2[N+](=O)[O-])s1, CCOC(=O)c1c(NC(=O)Cn2nnc(-c3ccc(Cl)cc3)n2)sc(C)c1C is higher in “hERG current change (%, negative = inhibition) at 10uM” value: -14.7% for the first, 6.97% for the second.

Compared with Cc1c(Br)c([N+](=O)[O-])nn1CC(=O)Nc1sc2c(c1C(=O)OC(C)C)CCC(C)C2 (stereo not drawn), COC(=O)c1cccc(NC(=O)CN2CCc3ccccc3C2)c1 is lower in “hERG current change (%, negative = inhibition) at 10uM” value: 17.4% for the first, 9.38% for the second.

Compared with Cc1ncsc1C(=O)O, Cc1c[n+](CC(=O)c2ccccc2)cs1.[Br-] is higher in “hERG current change (%, negative = inhibition) at 10uM” value: 16.1% for the first, 22% for the second.

First: O=S(=O)(NCc1ccccn1)c1cc(OCC(F)(F)F)ccc1OCC(F)(F)F
Second: Cc1ccc(C)c(-c2nnc(NC(=O)COc3ccccc3)o2)c1
The “hERG current change (%, negative = inhibition) at 10uM” value of the first is lower: -69.9% for the first, 11.2% for the second.

Compared with CCN(C(=O)CSc1nncs1)c1c(N)n(Cc2ccccc2)c(=O)[nH]c1=O, CCCCN(C(=O)/C=C/c1ccco1)c1c(N)n(CC(C)C)c(=O)[nH]c1=O is higher in “hERG current change (%, negative = inhibition) at 10uM” value: 8.1% for the first, 31.1% for the second.

Going from COc1cc2[nH]c(=O)n(CCCCCC(=O)NCCCN3CCCC3=O)c(=O)c2cc1OC to COc1ccc(CCNC(=O)c2cc3c(=O)n4cccc(C)c4nc3n(Cc3ccco3)c2=N)cc1OC, the “hERG current change (%, negative = inhibition) at 10uM” value falls from 7.87% to -80.9%.

First: Cn1ncc2c(=O)n(/N=C/c3ccccc3)cnc21
Second: COc1ccc(/C=N/N(Cc2ccccc2)c2ccccc2)cc1O
The “hERG current change (%, negative = inhibition) at 10uM” value of the first is higher: 18.6% for the first, 11.7% for the second.

Compared with O=C(Oc1cccnc1)c1cccc(Cl)c1, O=C(O/N=C1\CCS(=O)(=O)c2sccc21)c1ccccc1 is higher in “hERG current change (%, negative = inhibition) at 10uM” value: 6.44% for the first, 11.6% for the second.

First: CCC(=O)N1CCc2cc(S(=O)(=O)CCC(=O)Nc3ccc(F)c(F)c3)ccc21
Second: CCC(=O)N1CCc2cc(Br)cc(S(=O)(=O)NC3CCN(Cc4ccccc4)CC3)c21
The “hERG current change (%, negative = inhibition) at 10uM” value of the first is higher: 3.97% for the first, -25.3% for the second.

Compared with COc1ccccc1C(=O)NCCC(=O)NCC(c1ccccc1)N(C)C (stereo not drawn), COc1ccccc1NC(=O)N1CCN(c2ccccc2F)CC1 is higher in “hERG current change (%, negative = inhibition) at 10uM” value: -0.288% for the first, 10.7% for the second.

Going from CC(N=C1NS(=O)(=O)c2ccccc21)C(=O)Nc1ccc(F)cc1Cl (stereo not drawn) to CC(C)NC(=O)c1ccc2c(c1)N(Cc1ccccc1)C(=O)C(C)(C)O2, the “hERG current change (%, negative = inhibition) at 10uM” value rises from -7.74% to 21.1%.

Compared with CCn1cc(CNCc2cn(-c3ccccc3C)nc2-c2ccc(OC)c(F)c2)cn1, Cc1nnc(SCc2ccccc2F)n1NCc1cccs1 is higher in “hERG current change (%, negative = inhibition) at 10uM” value: -22% for the first, -18.2% for the second.

Going from O=C(O)C1CCCN1C(=O)Nc1ccc(Cl)cc1 (stereo not drawn) to NC(=O)c1ccc(NC(=O)CSc2nnc(-c3ccc4c(c3)OCO4)o2)cc1, the “hERG current change (%, negative = inhibition) at 10uM” value falls from 12.2% to 2.05%.

Going from CC(NCc1ccccc1)C1COc2ccccc2O1 (stereo not drawn) to O=C(Cn1nnc(-c2ccccc2)n1)OCc1csc(-c2ccccc2)n1, the “hERG current change (%, negative = inhibition) at 10uM” value falls from 2.12% to -11.3%.

First: CN(C)CCCNCCCNC(=O)c1ccco1.O=C(O)/C=C/C(=O)O
Second: CCn1c(CNC(=O)c2ccco2)nnc1SCC(=O)Nc1ccc(Br)cc1F
The “hERG current change (%, negative = inhibition) at 10uM” value of the first is higher: 1.47% for the first, -54.8% for the second.

Going from O=C(NCCN1CCOCC1)c1cccc(NS(=O)(=O)c2ccc(Br)cc2)c1 to Cc1c(C(=O)Nc2ccc3nc(N4CCOCC4)sc3c2)oc2ccccc12, the “hERG current change (%, negative = inhibition) at 10uM” value rises from -34.3% to -8.91%.

Going from COCCCn1c(N)c(C(=O)NCCC(C)C)c2nc3ccccc3nc21 to CCCn1c2ccccc2c2nnc(SC(CC)C(=O)Nc3cc(C)on3)nc21 (stereo not drawn), the “hERG current change (%, negative = inhibition) at 10uM” value rises from -31.7% to 6.83%.

Going from Cc1c(CC(C)C)nc(N)c(C#N)c1-c1ccccc1 to CCOc1ccccc1-n1c(C)cc(C=O)c1C, the “hERG current change (%, negative = inhibition) at 10uM” value falls from 12% to 11.1%.

First: C=C1c2c(Cl)ccc(O)c2C(O)=C2C(=O)[C@]3(O)C(O)=C(C(N)=O)C(=O)[C@@H](N(C)C)[C@@H]3[C@@H](O)C12.O=C(O)c1cc(S(=O)(=O)O)ccc1O (stereo partly drawn)
Second: Cc1[nH]n(-c2ccccc2)c(=O)c1C(c1ccc([N+](=O)[O-])cc1)c1c(C)[nH]n(-c2ccccc2)c1=O
The “hERG current change (%, negative = inhibition) at 10uM” value of the first is lower: 12.4% for the first, 15.3% for the second.

Going from CCCC[C@H]1COCCS(=O)(=O)N1Cc1ccc(F)cc1 to CCOc1ccc(C(=O)CN2C(=O)NC3(CCCCCC3)C2=O)cc1, the “hERG current change (%, negative = inhibition) at 10uM” value rises from -2.39% to 1.58%.

Going from N#Cc1cccc(NC(=O)CSc2nnc(-c3n[nH]c4ccccc34)o2)c1 to O=C(CSc1nc2ccccc2o1)Nc1nc(-c2ccccc2)c(-c2ccccc2)s1, the “hERG current change (%, negative = inhibition) at 10uM” value falls from 16.5% to 14.7%.

Going from CC(C)n1c(SCC(=O)N2CCCCC2)nc2c1c(=O)n(C)c(=O)n2C to COc1cc(NC(=S)N2CCCC(CO)C2)c(OC)cc1Cl (stereo not drawn), the “hERG current change (%, negative = inhibition) at 10uM” value falls from 15.4% to 8.9%.

First: COc1cc2c(cc1OC)C(=S)NC1(CCCC1)C2
Second: COc1ccccc1N1CCN(Cc2ccc(Cl)cc2Cl)CC1
The “hERG current change (%, negative = inhibition) at 10uM” value of the first is higher: 9.36% for the first, -12.7% for the second.

Compared with Fc1ccc(CN2CCN3CCCC3C2C2CCCCC2)cc1F (stereo not drawn), O=C(c1cccc(-c2ccc(O)cc2)c1)N1CCN(c2ccc(F)cc2)CC1 is higher in “hERG current change (%, negative = inhibition) at 10uM” value: -22.1% for the first, 23.3% for the second.

Compared with Oc1ccc(C2Nc3cccc4cccc(c34)N2)c(O)c1, COc1ccc(OC(C)C(=O)Nc2cccc(OC)c2)cc1 (stereo not drawn) is lower in “hERG current change (%, negative = inhibition) at 10uM” value: 14.9% for the first, -0.0503% for the second.

Going from COCCNC(=S)N/N=C/c1ccc([N+](=O)[O-])cc1 to COC(=O)CC1SC(=O)NC1=Nc1cccc(C)c1 (stereo not drawn), the “hERG current change (%, negative = inhibition) at 10uM” value rises from 12.4% to 14.4%.

With Cc1ccc(-c2nn[nH]n2)cc1 the “hERG current change (%, negative = inhibition) at 10uM” value was 2.07%.
